# The supplement of paper PMC3334620
# In all, about 33,000 sequences were measured (“E-score (-0.5 to 0.5)”: median about -0.04, highest 2% from about 0.36 on). Some of the results follow.
# Molecular target: T1, Hmlalpha2 (UniProt P0CY09)
# T1 sequence: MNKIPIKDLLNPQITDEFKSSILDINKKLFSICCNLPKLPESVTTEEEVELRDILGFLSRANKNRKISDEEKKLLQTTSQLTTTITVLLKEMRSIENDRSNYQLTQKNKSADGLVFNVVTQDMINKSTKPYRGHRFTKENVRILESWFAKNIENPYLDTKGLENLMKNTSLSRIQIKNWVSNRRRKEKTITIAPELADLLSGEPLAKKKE
# Experiment: PBM E-score (8-mer binding enrichment) (E-score (-0.5 to 0.5)); higher = stronger / more preferred TF binding; most listed sequences are background and not binding sites
# Conditions: protein concentration: 200 nM; construct: GST-full length
# Summary of the method: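 The E-score, a modified Wilcoxon-Mann-Whitney statistic, was computed by the Universal PBM Analysis Suite for every ungapped eight-base word pooled with its reverse complement. Scans behind it were normalised with masliner after bound GST-tagged yeast transcription factors were detected with fluorescent anti-GST. The proteins, at about 100-200 nM, had been applied to universal all-10-mer Agilent arrays made double-stranded by primer extension.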
row,Sequence,PBM E-score
1,CCCCACCA,-0.158
2,ATGGGATC,-0.107
3,GACGCTAA,-0.0516
4,GCACTGCA,-0.074
5,ATCTAGTC,-0.129
6,AAACTTAC,0.25
7,AAAACTGT,0.145
8,CGTTATGA,-0.0781
9,CGTCCTCC,-0.305
10,AGCTAAAC,0.0279
11,ACGCGAAA,0.15
12,CTCGATCA,-0.0171
13,AGTTGATA,0.0733
14,AGTCACTC,-0.0916
15,CTGAACAG,-0.1
16,GACTCACA,-0.0004
17,CTGGAACA,0.0869
18,GTCCCGCA,-0.264
19,GCGCTGCA,0.00088
20,CGCGCTGC,-0.0702
21,CCCGCTGC,-0.247
22,GTCTTATA,0.00859
23,ACAGGGCA,0.0594
24,AGCACTCC,0.0595

row,Sequence,PBM E-score
1,CACCTGTC,-0.266
2,GGTATTCA,0.133
3,CAGATAAG,-0.00314
4,CGATCCCC,-0.154
5,AGCGGCCA,-0.265
6,AAATCACA,0.165
7,ATTCAGTC,-0.0888
8,AAAATAGA,0.0729
9,CCCGTGCC,-0.337
10,GATGCTAC,0.069
11,ACGAGAGA,-0.0602
12,AGCTACAA,-0.0135
13,ATGATGGC,-0.222
14,AAAATCTA,0.208
15,CTATGAGA,-0.259
16,CAGGTTAA,0.203
17,AAACTCTA,0.0851
18,CAGTTATC,-0.131
19,AGTGCTGC,-0.252
20,AACCCATA,0.109
21,AGTGACTG,-0.152
22,AGCTCAAC,0.0679
23,GCTCCACC,-0.253
24,ACCCCTCG,-0.271

row,Sequence,PBM E-score
1,ATCGCCGG,-0.14
2,ACCGTCGG,-0.207
3,GTTTTTAA,0.279
4,ACATGATG,0.348
5,ATAGAATC,-0.1
6,AATTACGG,-0.0144
7,AATGAAAT,0.177
8,AACTCGGT,-0.0432
9,TCTCTGAA,-0.162
10,AACATTGT,0.284
11,AGTATCCC,-0.179
12,AAAAAGAA,0.115
13,GCTCTACC,-0.181
14,AGCCCGGC,-0.202
15,CCCACAGC,-0.0147
16,AAAGTACT,0.0164
17,CCAGACCG,-0.219
18,CATCCACC,-0.16
19,GTAAGAAA,0.0998
20,ATTAGTGA,-0.002
21,GTGAGTCA,-0.0354
22,CATAACCA,-0.00499
23,AGCCTCGC,-0.109
24,AGCATTGG,0.0606

row,Sequence,PBM E-score
1,AACGAGTC,0.00953
2,GTACAAAC,0.258
3,GCGTGGAA,-0.182
4,GGCATGTA,0.439
5,TATGGTAA,0.0569
6,ATAATTAG,0.078
7,AAAGCGTC,-0.0444
8,TCCCATCA,-0.215
9,ACCATGTG,0.188
10,ATCATGCC,-0.0296
11,TGGAAGAA,-0.0248
12,ACTCTACC,-0.0519
13,GGTGGTAA,0.11
14,AACCCAGG,-0.00398
15,AGTCGGTA,-0.0931
16,ATTGCGAA,0.0851
17,GTCAAGTA,0.201
18,AGTAAAAG,0.208
19,GTCCACTA,-0.0249
20,CACTGCGC,-0.2
21,AAAGAGTG,0.0105
22,CGAAAGTC,-0.0706
